Measurements as given in PMC4336329 (PLoS ONE, 2015).
In all, about 310,000 compounds went through this assay and about 2,200 (0.71%) showed an effect of 50% or more. The effect is printed as a negative number. Some of the results follow. Where a SMILES comes first, the peptide text is derived from it. [ ]: non-standard residue; d: D form. pGlu = O=C1CC[C@@H](C(=O)O)N1; Thz = O=C(O)[C@@H]1CSCN1

These compounds were tested against human ether-à-go-go-related gene (hERG) potassium channel (human, UniProt Q12809) (assay: primary screen, population patch clamp on CHO cells stably expressing hERG).
Chain of human ether-à-go-go-related gene (hERG) potassium channel (Q12809 whole entry, looked up): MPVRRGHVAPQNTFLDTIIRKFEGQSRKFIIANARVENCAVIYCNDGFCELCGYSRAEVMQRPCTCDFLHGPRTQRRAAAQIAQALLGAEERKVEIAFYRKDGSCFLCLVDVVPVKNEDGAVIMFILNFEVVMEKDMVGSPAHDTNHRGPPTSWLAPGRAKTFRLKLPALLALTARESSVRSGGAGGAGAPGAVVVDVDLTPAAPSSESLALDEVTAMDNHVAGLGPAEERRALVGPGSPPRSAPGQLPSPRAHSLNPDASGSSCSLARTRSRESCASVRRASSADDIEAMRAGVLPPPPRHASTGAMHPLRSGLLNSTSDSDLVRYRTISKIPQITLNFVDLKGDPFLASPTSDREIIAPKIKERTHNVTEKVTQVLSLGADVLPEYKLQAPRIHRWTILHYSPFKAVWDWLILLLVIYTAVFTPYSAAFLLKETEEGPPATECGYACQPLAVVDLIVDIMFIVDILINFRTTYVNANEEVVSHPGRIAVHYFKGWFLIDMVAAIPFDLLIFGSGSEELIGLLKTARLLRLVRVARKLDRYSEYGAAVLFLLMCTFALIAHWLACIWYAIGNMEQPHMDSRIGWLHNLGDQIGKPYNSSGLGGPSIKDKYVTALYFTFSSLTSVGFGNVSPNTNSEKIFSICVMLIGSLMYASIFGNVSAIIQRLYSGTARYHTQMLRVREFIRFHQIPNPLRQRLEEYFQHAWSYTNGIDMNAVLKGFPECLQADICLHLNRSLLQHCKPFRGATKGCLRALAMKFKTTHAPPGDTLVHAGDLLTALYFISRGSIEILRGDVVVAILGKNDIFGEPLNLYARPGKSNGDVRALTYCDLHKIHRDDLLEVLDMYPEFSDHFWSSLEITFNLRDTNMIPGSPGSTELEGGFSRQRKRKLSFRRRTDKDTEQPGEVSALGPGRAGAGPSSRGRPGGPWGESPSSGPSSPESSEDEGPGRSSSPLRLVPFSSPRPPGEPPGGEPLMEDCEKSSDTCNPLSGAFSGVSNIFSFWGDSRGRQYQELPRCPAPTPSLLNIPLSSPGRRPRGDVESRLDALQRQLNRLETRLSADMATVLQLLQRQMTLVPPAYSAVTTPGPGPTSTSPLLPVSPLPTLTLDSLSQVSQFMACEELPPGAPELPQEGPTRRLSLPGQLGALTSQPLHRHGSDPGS

Row | SMILES | hERG current change (%, negative = inhibition) at 1uM [%]
1 | O=C(NCc1ccccc1)NC(=O)c1ccccc1F | 18.3
2 | CC12CCC(C(=O)Nc3ccc(Br)cn3)(OC1=O)C2(C)C (stereo not shown) | 12.5
3 | CC(C)n1ncc(N2CCOCC2)c(Cl)c1=O | 15
4 | CN(CC(=O)Nc1ccccc1C(F)(F)F)Cc1c(O)ccc2ccccc12 | 14.6
5 | C/C(=N\O)c1cc(Cl)ccc1O | 13.4
6 | CN(C)c1ccc(/C=C(/NC(=O)c2ccccc2)C(=O)N/N=C/c2ccc([N+](=O)[O-])c(O)c2)cc1 | 2.08
7 | COC(=O)COc1ccc(S(=O)(=O)Nc2ccc3c(c2)OCCO3)cc1Cl | 13.6
8 | COc1ccc(CNC(=O)C2CCCN(S(=O)(=O)c3ccc(F)cc3)C2)cc1 (stereo not shown) | 7
9 | O=C(Nn1cnnc1)c1ccc(Cl)cc1 | 12.2
10 | CCCn1c(N)c(C(=O)CSc2nnc(-c3ccco3)n2Cc2ccccc2)c(=O)[nH]c1=O | -4.53
11 | COc1ccc(C2=C(CN(C)C)C(c3ccccc3)c3ccccc3O2)cc1.Cl (stereo not shown) | 15.1
12 | O=C(NCCCn1ccnc1)/C(=C\c1ccccc1Cl)NC(=O)c1ccccc1 | 6.1
13 | COc1cccc(CNc2ccc(N3CCC(C)CC3)cc2)c1OC | 12.2
14 | O=C(COC(=O)c1cccnc1Cl)c1ccc(F)cc1 | 13.5
15 | COc1ccc(NC2=NCC(C)S2)cc1 (stereo not shown) | 2
16 | O=C(NC1(C(F)(F)F)NC(=O)N(Cc2cccnc2)C1=O)c1ccccc1Cl (stereo not shown) | 0.26
17 | C/C(=N\NC(=O)c1ccccc1F)c1cccc(NC(=O)c2ccc(C)cc2)c1 | 11
18 | Cc1cccc(C(=O)OCC(=O)NC(=O)Cc2ccccc2)c1O | 12.1
19 | O=C(Nc1nccs1)c1ccc(-c2ccccc2Cl)o1 | 11.8
20 | COc1ccccc1CCNC(=O)C(=O)c1cn(CC(=O)N2CCOCC2)c2ccccc12 | -0.332
21 | O=C(c1cccs1)N1CCN(c2nnc(-c3ccccc3)c3ccccc23)CC1 | -15
22 | Cc1cc2ncc(-c3cccs3)nc2cc1C | 13.6
23 | O=C1CC[C@@H](C(=O)N2CSC[C@H]2C(=O)O)N1 ([pGlu]-[Thz]-OH) | 17.3
24 | COc1cc(/C=N/N2CCCCC2)cc([N+](=O)[O-])c1O | 14.7
25 | CN=C1SC(CC(=O)Nc2ccc(F)cc2F)C(=O)N1/N=C/c1ccc(OC(F)F)c(OC)c1 (stereo not shown) | 8.6
26 | CC(=O)Nc1ccccc1NC(=O)C/C(C)=N/NC(=O)C1CCCCC1 | 13.6
27 | O=C(Cc1cccs1)Nc1nnc(CCc2ccccc2)s1 | 11.9
28 | COc1ccccc1NC(=O)CCC(=O)OCc1ccc([N+](=O)[O-])cc1 | -0.782

Row | SMILES | hERG current change (%, negative = inhibition) at 1uM [%]
29 | CC(C)=C1C2CCC1C1C(=O)N(NC(=O)COc3ccc(C(C)(C)C)cc3)C(=O)C21 (stereo not shown) | 13.6
30 | COc1ccc(OC)c(NC(=O)CSc2nnc(-c3ccncc3)s2)c1 | 16.5
31 | Cc1ccccc1-c1nc(CN2CCC(C(=O)NCCCN3CC(C)CC(C)C3)CC2)c(C)o1 (stereo not shown) | 1.36
32 | Cc1ccc(-c2nnc(OCCN3CCOCC3)c3ccccc23)cc1 | -3.96
33 | COc1ccc2nc(/N=C(\N)NC(=O)Nc3ccccc3)nc(C)c2c1 | -11.5
34 | CCNC(=O)/C(=C\c1ccc2c(c1)OCO2)NC(=O)c1ccc(Br)cc1 | -48.9
35 | COc1ccc(OC)c(S(=O)(=O)Nc2cccc(F)c2)c1 | -1.72
36 | COC(=O)c1ccccc1OP1(=O)COc2ccccc2OC1 | 17.6
37 | S=c1[nH]nc(CCc2ccc(Cl)cc2)o1 | -3.05
38 | Cc1c(C(=O)Nc2ccc3c(c2)OCCO3)sc2nc(-c3ccccc3)cn12 | 2.95
39 | CCOC(=O)c1ccccc1NC(=O)/C=C/c1cc(OC)c(OC)c(OC)c1 | -11.5
40 | COc1cc(C2c3c(oc4ccccc4c3=O)C(=O)N2c2nccs2)ccc1O (stereo not shown) | 8.54
41 | CNS(=O)(=O)c1cc(NC(C)=O)c(C)cc1C | 9.56
42 | C=CCn1c(O)c(/C(C)=N/N2CCCCC2)c(=O)[nH]c1=O | 9.13
43 | CN(CC(=O)Nc1cccc(F)c1)C(=O)c1cccc(-n2cccc2)c1 | -2.42
44 | Cc1cc(C(=O)COC(=O)c2ccc(Cl)c(S(N)(=O)=O)c2)c(C)n1CC1CCCO1 (stereo not shown) | 8.68
45 | COc1ccc(/C=C/C(=O)c2ccccn2)cc1 | 18
46 | COc1ccc(CN2CCN(S(=O)(=O)c3ccc(F)cc3)CC2)c(OC)c1OC.O=C(O)C(=O)O | -4.26
47 | O=C(Nc1ccc(Br)cc1)c1cccc(S(=O)(=O)Nc2cnc3ccccc3c2)c1 | 17
48 | N/C(=N\OC(=O)c1ccc(Cl)cc1)c1[nH]ncc1Br | 8.21
49 | C#CCOCCOCCOCCNc1nc(N2CCOCC2)nc(N2CCN(C(=O)CCCCCCCCCCNC(=O)[C@H](CO)n3cc(CCCCCN)nn3)CC2)n1 | 10.7
50 | Cc1ccc(C(=O)Nc2nnc(NC(=S)Nc3ccccc3)s2)cc1 | 7.27
51 | N/C(=N\OC(=O)CCCC(=O)O)c1ncc(C(F)(F)F)cc1Cl | 8.03
52 | CC(C)OCCCNC(=O)Cn1nc(-c2ccccc2)ccc1=O | -3.14
53 | FC(F)(F)c1cc(CCN2CCNC[C@H]2Cc2cccc3ccccc23)cc(C(F)(F)F)c1 | 4.73
54 | COc1ccc(C(=O)NC(=S)Nc2cccc(Cl)c2N2CCOCC2)cc1[N+](=O)[O-] | 13.1
55 | C/C=C1\COC(C(=O)NCc2ccccc2)(C(F)(F)F)C=C1C=C1CCCCC1 (stereo not shown) | 21.7
